Like-named read-outs stand apart in the source and are kept apart here. Where a SMILES comes first, the peptide text is derived from it.
Test system: cellular ATP levels
Settings: for ATP (composite Z-score): normalized score vs mock-treated (DMSO) wells
[1] = 20 μM, composite Z-score vs DMSO
[2] = composite Z-score vs DMSO wells, Conc 20 μM
[3] = composite Z-score vs mock-treated (DMSO) wells, Conc 20 μM
[4] = composite Z-score vs DMSO, Conc 20 μM
[5] = normalized composite Z-score vs mock-treated (DMSO) wells, Conc 20 μM

Compound C=C[C@H]1CN2CC[C@H]1C[C@H]2[C@H](OC(=O)OCC)c1ccnc2ccc(OC)cc12 [quinine ethyl carbonate] has an ATP [1] of 0.317.

Work on CC(=O)N[C@H]1[C@H]([C@@H](O)[C@@H](O)CO)O[C@@](O)(C(=O)O)C[C@@H]1O [N-acetylneuramic acid] yielded an ATP [2] of 0.869.

In the case of c1cncc(C2=NCCC2)c1 [myosmine], the “ATP (composite Z-score)” value (Conc 27.36 μM) is reported as 2.062.

COc1cc(O)c2c(=O)c(-c3ccc(O)cc3)coc2c1OC [isotectorigenin, 7-methyl ether] was tested, and the “ATP (composite Z-score)” value (Conc 20 μM) was −1.101.

Compound CC(C)=CCCC1(C)C=Cc2c(O)c3c(c(CC=C(C)C)c2O1)OC12C(CC4CC1C(C)(C)OC2(C/C=C(/C)C(=O)O)C4O)C3=O (stereo not shown) [tetrahydrogambogic acid] has an ATP [3] of −0.668.

Compound CCN(CC)CCNC(=O)c1cc(S(C)(=O)=O)ccc1OC [tiapride] has an ATP (12.18 μM, composite Z-score vs DMSO) of 0.231 and an ATP [1] of 0.797.

Compound Nc1nc2c(ncn2[C@H]2C[C@H](O)[C@@H](CO)O2)c(=O)[nH]1 [deoxyguanosine] has an ATP [4] of 0.734.

For O=c1c2ccccc2oc2ccc(O)cc12 [2-hydroxyxanthone], the ATP [4] was −0.916.

In the case of C=C(C)C1Cc2c(ccc(C(=O)O)c2O)O1 (stereo not shown) [tubaic acid], the “ATP (composite Z-score)” value (Conc 20 μM) is reported as 0.416.

CC1(C)CC[C@]2(C(=O)O)CC[C@]3(C)C(=CC[C@@H]4[C@@]5(C)CC[C@H](O)C(C)(C)[C@@H]5CC[C@]43C)[C@@H]2C1 [oleanoic acid] showed an ATP [3] of 1.083.

Compound N[C@@H](CCC(=O)N[C@@H](CSC(CC(=O)O)C(=O)O)C(=O)NCC(=O)O)C(=O)O (stereo partly drawn) [S-(1,2-dicarboxyethyl)glutathione] has an ATP [4] of −0.160.

In the case of NC(=O)c1ccc[n+]([C@@H]2O[C@H](COP(=O)([O-])OP(=O)(O)OC[C@H]3O[C@@H](n4cnc5c(N)ncnc54)[C@H](OP(=O)(O)O)[C@@H]3O)[C@@H](O)[C@H]2O)c1, the ATP [1] is reported as 0.550.

CC(=O)O[C@H]1CC[C@]2(C)C(C[C@H](OC(C)=O)[C@]3(C)C4=CC(=O)OC(c5ccoc5)[C@@]4(C)CCC23)C1(C)C (stereo partly shown) was tested, and the “ATP (composite Z-score)” value (Conc 20 μM) was −0.198.

Compound CN[C@@H]1[C@@H](O[C@H]2O[C@H](CO)[C@@H](N)[C@H](O)[C@H]2O)OC2C[C@@H](N)[C@@H](O[C@H]3[C@H](O)[C@@H](O)[C@H](N)C[C@@H]3N)OC2[C@@H]1O (stereo partly shown) [apramycin] has an ATP [4] of 1.018.

With CN1C(C)(C)CCCC1(C)C [pempidine] the ATP [4] was 0.192.

COc1ccc2c(c1OC)OC[C@@H](c1ccc(OC)c(OC)c1OC)C2 [duartin, dimethyl ether] showed an ATP [3] of 0.049.

For CC1(C)C(=O)C=C[C@]2(C)[C@H]3CC[C@@]4(C)[C@H](c5ccoc5)OC(=O)[C@H]5O[C@]54[C@]3(C)C(=O)C[C@@H]12 [deacetoxy-7-oxogedunin], the ATP [3] was −0.025.

C=C1CCC(=O)C(C)CCC2C1CC2(C)C (stereo not shown) [dihydrocaryophyllen-5-one] gave an ATP [5] of 0.364.

CCCOc1ccccc1-c1nc2nn[nH]c2c(=O)[nH]1 [zaprinast] was tested, and the ATP [2] was 1.768.

In the case of CC(C)C[C@H](N)C(=O)N[C@@H](C)C(=O)O [L-leucyl-L-alanine] (H-Leu-Ala-OH), the ATP [4] is reported as 0.475.

C[C@@H]1C[C@H]2CC(=O)[C@H]3CCCN4CCC[C@H]2[C@]34C1 [lycopodine] gave an ATP [4] of −0.283.

In the case of CC[C@@]1(O)C(=O)OCc2c1cc1n(c2=O)Cc2cc3cc(O)ccc3nc2-1 [10-hydroxycamtothecin], the “ATP (composite Z-score)” value (Conc 20 μM) is reported as 0.468.

With CC(=O)Oc1ccccc1C(=O)Oc1ccccc1C(=O)O [diplosalsalate] the “ATP (composite Z-score)” value (Conc 20 μM) was −0.137.

Work on CN[C@@H]1[C@@H](O)[C@@H](O[C@@H]2[C@@H](O)[C@H](O[C@H]3OC(CN)=CC[C@H]3N)[C@@H](N)C[C@H]2N)OC[C@]1(C)O [sisomicin] yielded an ATP (composite Z-score vs DMSO, Conc 8.94 μM) of 0.411.

Work on COc1c(O)cc(O)cc1O [iretol] yielded an ATP [3] of −0.628.

For CCOc1cc(CC(=O)c2ccc(O)c(O)c2O)ccc1O, the “ATP (composite Z-score)” value (Conc 20 μM) was 0.234.

Compound CC(=O)N[C@@H](CC(=O)N[C@@H](CCC(=O)O)C(=O)O)C(=O)O [spaglumic acid] has an ATP [2] of 0.357.

Cc1cc(=O)c2c(O)c3c(cc2o1)OCC(C)CC3 (stereo not shown) [dihydroptaeroxylin] showed an ATP [5] of 0.530.

Work on COC(=O)C1=CCCN(C)C1 [arecoline] yielded an ATP [1] of −0.361 and an ATP (25.78 μM, composite Z-score vs DMSO) of 1.774.

COC(=O)C1(C)CCCC2(C)c3ccc(C(C)C)cc3C(=O)CC12 (stereo not shown) [7-oxocallitrisic acid, methyl ester] showed an ATP [4] of −0.302.

For COc1cc(/C=C/CO)ccc1O [coniferyl alcohol], the “ATP (composite Z-score)” value (Conc 20 μM) was 0.124.

Cc1cc(=O)c2c(O)c(C)c(O)cc2o1 [eugenitol] showed an ATP [3] of 0.166.

Compound CC(=O)O[C@@H]1CC2C(C)(C)[C@H](O)C=C[C@]2(C)C2CC[C@@]3(C)[C@H](c4ccoc4)OC(=O)C4OC43[C@@]21C (stereo partly shown) [gedunol] has an ATP [3] of 0.637.

C[C@@]12C(=O)OC(=O)[C@]1(C)[C@H]1CC[C@@H]2O1 [cantharidin] was tested, and the ATP [4] was −6.195 and the ATP (composite Z-score vs DMSO, Conc 20.38 μM) was −6.628.

Compound CCCCC[C@H](CC(=O)O)C(=O)O [nonic acid] has an ATP [5] of 0.366.

Work on COC1=C[C@@H]2[C@@H]3Cc4ccc(OC)c(O)c4[C@]2(CCN3C)CC1=O [sinomenine] yielded an ATP [4] of 0.495.

In the case of COc1ccc(C(=O)c2ccc(O)cc2)c(O)c1O [2,3,4′-trihydroxy-4-methoxybenzophenone], the ATP [5] is reported as −0.035.

In the case of CC1(C)C=Cc2cc3ccc(=O)oc3cc2O1 [xanthyletin], the ATP [3] is reported as 0.349.

Compound COc1cc(O)c2c(=O)cc(C)oc2c1CC=C(C)C [heteropeucenin, methyl ether] has an ATP [3] of −0.142.

For CC(C)c1ccc2c(c1O)CC[C@H]1C3=C(CC[C@]21C)C(=O)OC3 [triptophenolide], the “ATP (composite Z-score)” value (Conc 20 μM) was −2.142.

Compound C[C@@H]1C(=O)O[C@H]2[C@H]1CC[C@@]1(C)C=CC(=O)[C@@]3(C)O[C@@]213 [epoxy (4,5alpha)-4,5-dihydrosantonin] has an ATP [3] of 0.475.

For COC1=CC(=O)C(C(=O)c2ccccc2)=CC1=O [2-benzoyl-5-methoxybenzoquinone], the ATP [4] was 0.353.

NCCNC(=O)c1ccc(Cl)cc1 [N-(2-aminoethyl)-4-chlorobenzamide] gave an ATP [2] of 0.830.

In the case of CCOc1ccc(C(=O)c2ccc(O)c(O)c2O)cc1 [2,3,4-trihydroxy-4′-ethoxybenzophenone], the “ATP (composite Z-score)” value (Conc 20 μM) is reported as 1.562.

Work on C1COC(NC(C2CC2)C2CC2)=N1 [rilmenidine] yielded an ATP of 0.135.

Oc1c(Cl)cc(Cl)c(Cl)c1Cc1c(O)c(Cl)cc(Cl)c1Cl [hexachlorophene] gave an ATP [2] of −5.584.

Work on C[C@H]1CC[C@]2(NC1)O[C@H]1C[C@H]3[C@@H]4CC[C@H]5C[C@@H](O[C@@H]6O[C@H](CO)[C@H](O[C@@H]7O[C@H](CO)[C@@H](O)[C@H](O[C@@H]8OC[C@@H](O)[C@H](O)[C@H]8O)[C@H]7O[C@@H]7O[C@H](CO)[C@@H](O)[C@H](O)[C@H]7O)[C@H](O)[C@H]6O)CC[C@]5(C)[C@H]4CC[C@]3(C)[C@H]1[C@@H]2C [tomatine] yielded an ATP [4] of −5.117.

Work on CCNC(=O)CC[C@H](N)C(=O)O [theanine] yielded an ATP [4] of 0.157.

Compound CC1=CC2C(C(C)C)CCC(C)(O)C2CC1 (stereo not shown) [cadin-4-en-10-ol] has an ATP [5] of 0.543.

C[C@]12C=CC(=O)C=C1CC[C@@H]1[C@@H]2CC[C@]2(C)C(=O)CC[C@@H]12 [androsta-1,4-dien-3,17-dione] gave an ATP [4] of −0.063.

CC(=O)O[C@@H]1CC(=O)[C@@]2(C)C(CC(=O)[C@]3(C)C2CC[C@@]2(C)[C@H](c4ccoc4)OC(=O)C4OC423)C1(C)C (stereo partly shown) [1,7-dideacetoxy-1,7-dioxokhivorin] was tested, and the ATP [3] was 0.712.

With C=C[C@@](C)(O)CCC1C(=C)CCC2[C@@](C)(CO)CCC[C@]12C (stereo partly drawn) [epi(13)torulosol] the ATP [5] was 1.007.

With C=C1[C@@H]([C@@]2(C)[C@@H](OC(C)=O)CC(=O)O[C@](C)(COC(C)=O)[C@@H]2C(=O)OC)[C@@H](OC=O)[C@H](OC(=O)[C@H](O)[C@H](C)CC)[C@@]2(C)[C@H](c3ccoc3)CC(=O)[C@]12O [Prieurianin, reference compound] the ATP [3] was 2.125.

khayanthone showed an ATP [3] of 0.345.

CC1(C)C2CC(=O)[C@]3(C)C(CC[C@@]4(C)[C@H](c5ccoc5)OC(=O)C5OC543)[C@@]2(C)[C@@H](O)C[C@H]1O (stereo partly shown) [1,3-dideacetyl-7-deacetoxy-7-oxokhivorin] showed an ATP [5] of −0.006.

With CCCCCc1c2c(cc(O)c1C(=O)O)OC(=O)c1c(cc(OC)cc1C(=O)CCCC)O2 [lobaric acid] the ATP [4] was −0.552.

In the case of CC(C)=CCc1c(O)cc2oc(C)cc(=O)c2c1O [peucenin], the ATP [3] is reported as 0.465.

In the case of CC(=O)OCC(=O)[C@@]1(O)[C@H](C)C[C@H]2[C@@H]3CCC4=CC(=O)C=C[C@]4(C)[C@@]3(F)[C@@H](O)C[C@@]21C [dexamethasone acetate], the ATP [4] is reported as 0.307.

For CON [methoxyamine], the ATP [2] was 0.789.

Compound C[C@H](CCC(=O)O)[C@H]1CC[C@H]2[C@@H]3CCC4CCCC[C@]4(C)[C@H]3C=C[C@]12C (stereo partly shown) [chol-11-enic acid] has an ATP [5] of −0.496.

“7-deshydroxypyrogallin-4-carboxylic acid” was tested, and the ATP [3] was 0.330.

In the case of Cc1c(O)c(C(=O)CC(C)C)c2oc3c(C(=O)CC(C)C)c(O)c(C)c(O)c3c2c1O [rhodomyrtoxin], the “ATP (composite Z-score)” value (Conc 20 μM) is reported as −2.765.

Compound CC(=O)c1cc(CC=C(C)C)c(O)c(CC=C(C)C)c1 [3,5-diprenyl-4-hydroxyacetophenone] has an ATP [4] of −0.362.

In the case of CNC[C@H](O)c1cccc(O)c1 [phenylephrine], the ATP is reported as −0.455.

For COC(=O)N/N=C/c1c[n+]([O-])c2ccccc2[n+]1[O-] [carbadox], the ATP [4] was −0.297.

In the case of CC1(C)S[C@@H]2[C@H](NC(=O)COc3ccccc3)C(=O)N2[C@H]1C(=O)O [penicillin V], the ATP [1] is reported as 0.818.

Work on Cc1cc(NC(=O)C2=C(O)c3ccccc3S(=O)(=O)N2C)no1 [isoxicam] yielded an ATP [2] of 0.708.

Compound COc1ccc([C@@H](C)C(=O)c2ccc(O)cc2O)cc1 [(R)-angolensin] has an ATP [3] of 1.320.

Work on CC(=O)O[C@]1(C)CC[C@@]23C[C@@H]1C(C)(C)[C@@H]2CC[C@H]3C [cedryl acetate] yielded an ATP [5] of 0.493.

In the case of COc1cc2c3cc1Oc1cc(ccc1O)CC1c4c(cc(OC)c(O)c4Oc4ccc(cc4)CC3N(C)CC2)CCN1C (stereo not shown) [bebeerine], the “ATP (composite Z-score)” value (Conc 20 μM) is reported as 0.034.
